Assay results reported in publication PMC3245299.
No constants are given. Whether binding was seen depends on the method and setting. Binding seen in cells or lysates may run through a third protein. Some results given as binding are weak or reduced against the parent protein; the word gives no strength.

The chains behind the UniProt entries cited, without tags or fusion partners. Where a name states a change or a piece, a line headed by the entry shows the natural chain unless it says otherwise. A line that says so, or that is headed by a name, gives the form on record, which may keep a tag or linker.
I2PP2A (SET, Taf-1β), endogenous in HEK293T cells (Q01105-2, form named): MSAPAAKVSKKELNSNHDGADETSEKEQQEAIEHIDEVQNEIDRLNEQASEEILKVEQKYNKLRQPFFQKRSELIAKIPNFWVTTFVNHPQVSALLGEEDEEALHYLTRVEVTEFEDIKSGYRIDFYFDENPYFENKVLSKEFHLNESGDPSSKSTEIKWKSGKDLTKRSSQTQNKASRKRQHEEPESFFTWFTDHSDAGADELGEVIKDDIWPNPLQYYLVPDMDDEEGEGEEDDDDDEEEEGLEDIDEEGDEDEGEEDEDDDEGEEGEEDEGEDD
UniProt P06748: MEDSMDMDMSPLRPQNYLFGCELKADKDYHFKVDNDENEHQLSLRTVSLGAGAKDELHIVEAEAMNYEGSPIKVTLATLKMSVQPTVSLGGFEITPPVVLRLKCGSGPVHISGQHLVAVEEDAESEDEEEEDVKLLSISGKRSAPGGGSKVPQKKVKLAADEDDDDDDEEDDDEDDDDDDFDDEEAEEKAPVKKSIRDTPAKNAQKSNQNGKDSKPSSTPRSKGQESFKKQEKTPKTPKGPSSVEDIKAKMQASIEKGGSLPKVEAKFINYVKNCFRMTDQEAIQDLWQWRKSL

Columns and labels:
[1] = target: GST-DCC196-228 (GST fused to the DHBc linker region, residues 196-228), expressed in HEK293T (duck hepatitis B virus (DHBV)) (UniProt P0C6J7); experiment: pull-down; HEK293T transfected with GST-DCC or GST-HCC fusion constructs only; RNase A-treated lysate (50 mM Tris pH 8.0, 150 mM NaCl, 1 mM EDTA, 1% NP-40); GST pulldown on GSH affinity resin; endogenous B23 and I2PP2A detected by western blot (and Coomassie staining) (Fig. 5B, 8D)
[2] = target: GST-HCC141-EEE, expressed in HEK293T (human hepatitis B virus (HBV)) (UniProt P03146); experiment: as above
[3] = target: GST-HCC141 (GST fused to the HBc CTD, residues 141-183, WT), expressed in HEK293T (human hepatitis B virus (HBV)) (UniProt P03146); experiment: as above
[4] = target: I2PP2A-Flag-HA (human I2PP2A with C-terminal Flag and HA tags) (human) (UniProt Q01105); experiment: co-IP; [35S]methionine-labelled proteins translated in rabbit reticulocyte lysate, DNase I and RNase A treated, bound to 3X-Flag-B23 or I2PP2A-Flag-HA antibody resin prepared from HEK293T cells; washed in lysis buffer with 0.1% NP-40; autoradiography (Fig. 7); only the target purified
[5] = target: 3X-Flag-tagged human B23/nucleophosmin (p3X-Flag-CMV-14-NPM) (human) (UniProt P06748); experiment: as above
[6] = target: I2PP2A-Flag-HA (human I2PP2A with C-terminal Flag and HA tags) (human) (UniProt Q01105); experiment: co-IP; HEK293T cotransfected with GST-DCC fusion construct and 3X-Flag-B23 or I2PP2A-Flag-HA (1:1); RNase A-digested lysates; protein A/G resin prebound with anti-Flag (B23) or anti-Flag plus anti-HA (I2PP2A); 4 hours at 4°C; western blot for GST (Fig. 5A, 5C)

Substance | binding [2] | binding [3] | binding [4] | binding [5] | further results
B23 (nucleophosmin, NPM1), endogenous in HEK293T cells (from UniProt P06748 1-294) | binds weakly | no binding | – | – | binding [1]: binds
DHBc 1–228 (CTD-deletion mutant with the linker but without the phosphodomain), in vitro translated (from UniProt P0C6J7 1-228) (domain or fragment) | – | – | binds weakly | binds weakly | –
GST-DCC196-228 (GST fused to the DHBc linker region, residues 196-228), expressed in HEK293T (from UniProt P0C6J7 196-228) (domain or fragment) | – | – | – | – | binding [6]: binds
GST-DCC196-228 (linker region construct), in vitro translated in RRL (from UniProt P0C6J7 196-228) (domain or fragment) | – | – | binds weakly | binds weakly | –
I2PP2A (SET, Taf-1β), endogenous in HEK293T cells (from UniProt Q01105-2 1-277) | no binding | no binding | – | – | –
